Test results as given in publication PMC5290234, “Influence of Escherichia coli chaperone DnaK on protein immunogenicity” (Immunology, 2016).

Biological target: T1, recombinant E. coli DnaK (E. coli, UniProt P0A6Y8)
T1 construct: Chaperone protein DnaK (HSP70) of Escherichia coli, recombinant; Commercial recombinant protein; also called 70 000 MW E. coli chaperone protein DnaK; HSP DnaK; source: bought: Enzo Life Sciences
Experiment: co-sedimentation; 0.5 ul DnaK (1 mg/ml) added to 500 ul heat-aggregated mouse albumin (60 degrees 24 hr at 5 mg/ml, diluted to 1 mg/ml, PBS), ultracentrifugation at 802 000 g for 30 min; pellet and supernatant blotted with anti-DnaK
Details: both partners purified

binding result: binds
B1: mouse albumin (natural protein)
chain: not shown
notes: Serum albumin, mouse; Used as monomer or as heat aggregate (5 mg/ml, 60 degrees, 24 hr, about 50 nm, about 50% loss of secondary structure); also called mouse serum albumin; source: bought: MP Biomedicals (lyophilized)
